# Where “and” joins values, the source holds several entries; their conditions need not be identical. Equal values may be shown once. Over roughly 2,900 compounds, “NF-kB SEAP reporter activity, fold change vs agonist alone” has its median near 0.99; the highest 2% begin near 2.6. This is one part of the list.
# Experiments:
# RAW-Dual [1] = assay: NF-kB SEAP reporter activity, fold change vs agonist alone; cytotoxicity flag (confluency mask): not cytotoxic; higher = enhanced NF-kB activity
# Method in brief: (§1)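 RAW-Dual macrophages were seeded in DMEM at 50,000 cells/well in 384-well plates, given 50 nL of library stock by pin tool, and given a PRR agonist 1 h later. Plates were held at 37 °C, 5% CO2 for 20 hours, after which supernatant was read for IRF by QuantiLuc luminescence and for NF-κB by QuantiBlue absorbance at 620 nm. Reporter activity is expressed as fold change over wells that received agonist alone. A well was called cytotoxic when IncuCyte confluency fell below 70% of agonist controls in both mask sets.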
# RAW-Dual [2] = assay: NF-kB SEAP reporter activity, fold change vs agonist alone; higher = enhanced NF-kB activity
# Method in brief: as §1
# RAW-Dual [3] = assay: NF-kB SEAP reporter activity, fold change vs agonist alone; cytotoxicity flag (confluency mask): cytotoxic (confluency <70% of control); higher = enhanced NF-kB activity
# Method in brief: as §1
# [4] = agonist: ODN 1826 (TLR9) 0.5 ug/mL
# [5] = agonist: Pam2CSK4 (TLR2/6) 0.1 ug/mL
# [6] = agonist: Pam3CSK4 (TLR2/1) 0.1 ug/mL
# [7] = library stock concentration (final ~1000-fold dilution): 10 mM, cytotoxicity flag (confluency mask): not cytotoxic, agonist: Imiquimod (TLR7) […]
# [8] = library stock concentration (final ~1000-fold dilution): 10 mM, cytotoxicity flag (confluency mask): not cytotoxic, agonist: MPLA (TLR4) […]
structure (smiles),measurement,setting,value
O.S=c1nc[nH]c2nc[nH]c12 (library stock concentration (final ~1000-fold dilution): 10 mM),NF-kB SEAP reporter activity,RAW-Dual [1]; agonist: LPS (TLR4) 0.1 ug/mL,1.05
same,NF-kB SEAP reporter activity,RAW-Dual [1]; [4],0.808
same,NF-kB SEAP reporter activity,RAW-Dual [1]; [5],0.594
same,NF-kB SEAP reporter activity,RAW-Dual [1]; [6],0.684
O.S=c1nc[nH]c2nc[nH]c12,NF-kB SEAP reporter activity,RAW-Dual [2]; [7],0.752
same,NF-kB SEAP reporter activity,RAW-Dual [2]; [8],0.963
CCOC(=O)C1OC1C(=O)NC(CC(C)C)C(=O)NCCC(C)C (stereo unspecified),NF-kB SEAP reporter activity,RAW-Dual [2]; [7],0.405
same,NF-kB SEAP reporter activity,RAW-Dual [2]; [8],0.838
CCOC(=O)C1OC1C(=O)NC(CC(C)C)C(=O)NCCC(C)C (stereo unspecified) (library stock concentration (final ~1000-fold dilution): 10 mM),NF-kB SEAP reporter activity,RAW-Dual [1]; agonist: LPS (TLR4) 0.1 ug/mL,0.608
same,NF-kB SEAP reporter activity,RAW-Dual [1]; [4],0.892
same,NF-kB SEAP reporter activity,RAW-Dual [1]; [5],0.839
same,NF-kB SEAP reporter activity,RAW-Dual [1]; [6],0.79
Cl.N=C(N)NC(=O)c1nc(Cl)c(N)nc1N (library stock concentration (final ~1000-fold dilution): 10 mM),NF-kB SEAP reporter activity,RAW-Dual [1]; agonist: LPS (TLR4) 0.1 ug/mL,0.944
same,NF-kB SEAP reporter activity,RAW-Dual [1]; [4],0.967
same,NF-kB SEAP reporter activity,RAW-Dual [1]; [5],0.889
same,NF-kB SEAP reporter activity,RAW-Dual [1]; [6],0.92
Cl.N=C(N)NC(=O)c1nc(Cl)c(N)nc1N,NF-kB SEAP reporter activity,RAW-Dual [2]; [7],0.88
same,NF-kB SEAP reporter activity,RAW-Dual [2]; [8],0.876
O=C(NCCS(=O)(=O)c1ccc(C(F)(F)F)cn1)c1ccc(Cl)cc1,NF-kB SEAP reporter activity,RAW-Dual [2]; [7],0.88
same,NF-kB SEAP reporter activity,RAW-Dual [2]; [8],0.923
O=C(NCCS(=O)(=O)c1ccc(C(F)(F)F)cn1)c1ccc(Cl)cc1 (library stock concentration (final ~1000-fold dilution): 10 mM),NF-kB SEAP reporter activity,RAW-Dual [1]; agonist: LPS (TLR4) 0.1 ug/mL,1.09
same,NF-kB SEAP reporter activity,RAW-Dual [1]; [4],0.846
same,NF-kB SEAP reporter activity,RAW-Dual [1]; [5],1.11
same,NF-kB SEAP reporter activity,RAW-Dual [1]; [6],1.02
CC(C)CC(=O)Nc1n[nH]c2c1CN(C(=O)C1CCN(C)CC1)C2(C)C,NF-kB SEAP reporter activity,RAW-Dual [2]; [7],2.08
same,NF-kB SEAP reporter activity,RAW-Dual [2]; [8],1.01
CC(C)CC(=O)Nc1n[nH]c2c1CN(C(=O)C1CCN(C)CC1)C2(C)C (library stock concentration (final ~1000-fold dilution): 10 mM),NF-kB SEAP reporter activity,RAW-Dual [1]; agonist: LPS (TLR4) 0.1 ug/mL,0.87
same,NF-kB SEAP reporter activity,RAW-Dual [1]; [4],2.42
same,NF-kB SEAP reporter activity,RAW-Dual [1]; [5],0.981
same,NF-kB SEAP reporter activity,RAW-Dual [1]; [6],1.32
CC(C)=CCC[C@](C)(O)[C@@H]1CC[C@]2(C)C3CCC4C(C)(C)C(O[C@@H]5O[C@H](CO)[C@@H](O)[C@H](O)[C@H]5O[C@@H]5O[C@H](CO)[C@@H](O)[C@H](CO)[C@H]5O)CC[C@]4(C)C3C[C@H](O)[C@H]12 (stereo partly specified) (library stock concentration (final ~1000-fold dilution): 10 mM),NF-kB SEAP reporter activity,RAW-Dual [1]; agonist: LPS (TLR4) 0.1 ug/mL,1.2
same,NF-kB SEAP reporter activity,RAW-Dual [1]; [4],0.581
same,NF-kB SEAP reporter activity,RAW-Dual [1]; [5],0.971
same,NF-kB SEAP reporter activity,RAW-Dual [1]; [6],0.922
CC(C)=CCC[C@](C)(O)[C@@H]1CC[C@]2(C)C3CCC4C(C)(C)C(O[C@@H]5O[C@H](CO)[C@@H](O)[C@H](O)[C@H]5O[C@@H]5O[C@H](CO)[C@@H](O)[C@H](CO)[C@H]5O)CC[C@]4(C)C3C[C@H](O)[C@H]12 (stereo partly specified),NF-kB SEAP reporter activity,RAW-Dual [2]; [7],1.01
same,NF-kB SEAP reporter activity,RAW-Dual [2]; [8],1.17
Cc1ccc(C(=O)N(CCCN)C(c2oc3cc(Cl)ccc3c(=O)c2Cc2ccccc2)C(C)C)cc1.Cl (stereo unspecified),NF-kB SEAP reporter activity,RAW-Dual [2]; [7],0.905
same,NF-kB SEAP reporter activity,RAW-Dual [2]; [8],1.03
Cc1ccc(C(=O)N(CCCN)C(c2oc3cc(Cl)ccc3c(=O)c2Cc2ccccc2)C(C)C)cc1.Cl (stereo unspecified) (library stock concentration (final ~1000-fold dilution): 10 mM),NF-kB SEAP reporter activity,RAW-Dual [1]; agonist: LPS (TLR4) 0.1 ug/mL,0.189
same,NF-kB SEAP reporter activity,RAW-Dual [1]; [4],0.953
same,NF-kB SEAP reporter activity,RAW-Dual [1]; [5],0.344
same,NF-kB SEAP reporter activity,RAW-Dual [1]; [6],0.73
Cc1c(OCC(F)(F)F)ccnc1CS(=O)c1nc2ccccc2[nH]1 (stereo unspecified) (library stock concentration (final ~1000-fold dilution): 10 mM),NF-kB SEAP reporter activity,RAW-Dual [1]; agonist: LPS (TLR4) 0.1 ug/mL,0.895
same,NF-kB SEAP reporter activity,RAW-Dual [1]; [4],0.905
same,NF-kB SEAP reporter activity,RAW-Dual [1]; [5],0.711
same,NF-kB SEAP reporter activity,RAW-Dual [1]; [6],0.795
Cc1c(OCC(F)(F)F)ccnc1CS(=O)c1nc2ccccc2[nH]1 (stereo unspecified),NF-kB SEAP reporter activity,RAW-Dual [2]; [7],0.849
same,NF-kB SEAP reporter activity,RAW-Dual [2]; [8],0.918
CC(C)(C)N.CCCC(NC(C)C(=O)N1C(C(=O)O)CC2CCCCC21)C(=O)OCC (stereo unspecified) (library stock concentration (final ~1000-fold dilution): 10 mM water),NF-kB SEAP reporter activity,RAW-Dual [1]; agonist: LPS (TLR4) 0.1 ug/mL,1.05
same,NF-kB SEAP reporter activity,RAW-Dual [1]; [4],1.13
same,NF-kB SEAP reporter activity,RAW-Dual [1]; [5],1.17
same,NF-kB SEAP reporter activity,RAW-Dual [1]; [6],1.02
CC(C)(C)N.CCCC(NC(C)C(=O)N1C(C(=O)O)CC2CCCCC21)C(=O)OCC (stereo unspecified),NF-kB SEAP reporter activity,"RAW-Dual [2]; library stock concentration (final ~1000-fold dilution): 10 mM water, cytotoxicity flag (confluency mask): not cytotoxic, agonist: Imiquimod (TLR7) […]",0.909
same,NF-kB SEAP reporter activity,"RAW-Dual [2]; library stock concentration (final ~1000-fold dilution): 10 mM water, cytotoxicity flag (confluency mask): not cytotoxic, agonist: MPLA (TLR4) […]",1.04
CN1CCc2cc3c(cc2C(=O)Cc2ccc4c(c2C1)OCO4)OCO3 (library stock concentration (final ~1000-fold dilution): 10 mM),NF-kB SEAP reporter activity,RAW-Dual [1]; agonist: LPS (TLR4) 0.1 ug/mL,0.908 and 0.875
same,NF-kB SEAP reporter activity,RAW-Dual [1]; [4],1.01 and 0.566
same,NF-kB SEAP reporter activity,RAW-Dual [1]; [5],1.02 and 0.937
same,NF-kB SEAP reporter activity,RAW-Dual [1]; [6],0.925 and 0.685
C=CC(=O)Nc1cc(C)ccc1Nc1nc(Nc2cc(OC)ncc2C)ncc1C(F)(F)F,NF-kB SEAP reporter activity,"RAW-Dual [2]; library stock concentration (final ~1000-fold dilution): 10 mM, cytotoxicity flag (confluency mask): cytotoxic (confluency <70% of control), agonist: Imiquimod (TLR7) […]",0.135
same,NF-kB SEAP reporter activity,"RAW-Dual [2]; library stock concentration (final ~1000-fold dilution): 10 mM, cytotoxicity flag (confluency mask): cytotoxic (confluency <70% of control), agonist: MPLA (TLR4) […]",0.269
C=CC(=O)Nc1cc(C)ccc1Nc1nc(Nc2cc(OC)ncc2C)ncc1C(F)(F)F (library stock concentration (final ~1000-fold dilution): 10 mM),NF-kB SEAP reporter activity,RAW-Dual [3]; agonist: LPS (TLR4) 0.1 ug/mL,0.389
same,NF-kB SEAP reporter activity,RAW-Dual [3]; [4],0.177
same,NF-kB SEAP reporter activity,RAW-Dual [3]; [5],0.0907
same,NF-kB SEAP reporter activity,RAW-Dual [3]; [6],0.134
Cc1cc2c(F)c(Oc3ncnn4cc(OCC(C)O)c(C)c34)ccc2[nH]1 (stereo unspecified),NF-kB SEAP reporter activity,RAW-Dual [2]; [7],2.01
same,NF-kB SEAP reporter activity,RAW-Dual [2]; [8],1.39
Cc1cc2c(F)c(Oc3ncnn4cc(OCC(C)O)c(C)c34)ccc2[nH]1 (stereo unspecified) (library stock concentration (final ~1000-fold dilution): 10 mM),NF-kB SEAP reporter activity,RAW-Dual [1]; agonist: LPS (TLR4) 0.1 ug/mL,1.8
same,NF-kB SEAP reporter activity,RAW-Dual [1]; [4],0.986
same,NF-kB SEAP reporter activity,RAW-Dual [1]; [5],0.77
same,NF-kB SEAP reporter activity,RAW-Dual [1]; [6],1.18
CC1(C)CC(=O)c2c(C(F)(F)F)nn(-c3ccc(C(N)=O)c(NC4CCC(OC(=O)CN)CC4)c3)c2C1 (stereo unspecified),NF-kB SEAP reporter activity,RAW-Dual [2]; [7],0.916
same,NF-kB SEAP reporter activity,RAW-Dual [2]; [8],0.907
CC1(C)CC(=O)c2c(C(F)(F)F)nn(-c3ccc(C(N)=O)c(NC4CCC(OC(=O)CN)CC4)c3)c2C1 (stereo unspecified) (library stock concentration (final ~1000-fold dilution): 10 mM),NF-kB SEAP reporter activity,RAW-Dual [1]; agonist: LPS (TLR4) 0.1 ug/mL,0.226
same,NF-kB SEAP reporter activity,RAW-Dual [1]; [4],0.929
same,NF-kB SEAP reporter activity,RAW-Dual [1]; [5],0.113
same,NF-kB SEAP reporter activity,RAW-Dual [1]; [6],0.234

# Source: the supplement of paper PMC10037445
